This is an account of results in PubChem BioAssay AID1346428 (National Center for Advancing Translational Sciences (NCATS), 2018).

Screen size: about 48,000 compounds; about 1,200 (2.5%) were called active. Inconclusive results (about 2%) are left out.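 Rule for the calls: active = activation of at least 60% and not above a set upper limit (about 1 call in 100 departs from these limits); inconclusive = activation of 40% to 60%, or above that upper limit; inactive = activation under 40%.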 The list shows a part of the results.

For this experiment, the target named is Probable G-protein coupled receptor 32 (Homo sapiens) (UniProt O75388). Description: qHTS for Agonists of Human Resolvin D1 Receptor DRV1. Note: 0% is about no effect. To be noted: CHO-K1 GPR32 beta-arrestin PathHunter luminescence, 90 min; at 76.9 µM; active compounds read high; zero percent set by DMSO-only wells. The method, boiled down: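 Readings come from a cell-based beta-arrestin complementation format: CHO-K1 GPR32 stable cells (2,500/well) treated 90 min with compounds, then beta-Gal substrate added for 1 h before chemiluminescence imaging.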
Chain of UniProt O75388 (O75388 whole entry, looked up): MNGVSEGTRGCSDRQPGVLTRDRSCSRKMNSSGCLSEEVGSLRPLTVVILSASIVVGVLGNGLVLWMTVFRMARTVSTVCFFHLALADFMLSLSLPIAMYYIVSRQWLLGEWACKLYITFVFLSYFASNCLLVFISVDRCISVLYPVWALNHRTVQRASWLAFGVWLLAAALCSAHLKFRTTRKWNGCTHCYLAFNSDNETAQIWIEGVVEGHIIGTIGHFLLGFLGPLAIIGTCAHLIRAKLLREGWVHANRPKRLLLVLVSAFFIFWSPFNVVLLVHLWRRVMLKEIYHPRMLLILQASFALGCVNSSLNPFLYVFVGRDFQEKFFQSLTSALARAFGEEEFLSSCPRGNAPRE
Background: Quantitative high-throughput screening tests each substance at several concentrations.
Consider `CN(Cc1ccccc1)c1ncnc2c1nnn2C`, for which the activation was inactive: -10.5%.

With `O=S(=O)(NCC(c1ccco1)S(=O)(=O)c1cccs1)c1ccc(Cl)cc1` (configuration not stated), the activation was inactive: -6.61%.

On to `CCc1nn(CC(=O)N(C)Cc2ccccc2)c(=O)c2cc3sccc3n12`, for which the activation is inactive: -10.3%.

For the molecule `Cc1ccc(CSCCC(=O)NCc2ccc(F)cc2Cl)cc1`, the activation is inactive: -20.5%.

Regarding `CC(=O)c1cccc(NS(=O)(=O)c2cc(-c3cnc(C4CC4)o3)ccc2C)c1`, the activation is inactive: -5.56%.

Turning to `Cc1ccc(C(=O)NCCc2ccc(S(N)(=O)=O)cc2)cc1-n1cnc2cccnc21`, the activation was inactive: -3.11%.

Turning to `Cc1cccc(C(=O)n2nc(-c3cccnc3)nc2NCc2ccccc2)c1`, the activation is inactive: -34.2%.

As to `CCn1cc(C(=O)NCCCOC)c(=O)c2cc(S(=O)(=O)N3CCCC3)ccc21`, the activation is inactive: -1.41%.

With `COC(=O)c1c(NC(=O)Cc2coc3ccc(C(C)C)cc23)sc2c1CCC2`, the activation is inactive: -7.64%.

Regarding `O=C(CCCCn1c(=O)c2ccccc2n(CC(=O)Nc2ccc(F)cc2F)c1=O)NCCc1ccccc1`, the activation was inactive: -0.217%.

Regarding `Cc1ccc(NC(=O)Nc2ccccc2OCc2cc(=O)n3ccccc3n2)c(Cl)c1`, the activation was inactive: -3.12%.

Regarding `COc1ccccc1OCc1nc(C#N)c(NCc2ccc(C)cc2)o1`, the activation was inactive: -25.8%.

Consider `CC(C)(C)OC(=O)N1CCC(c2c(C(=O)N3CCCCC3)cnn2-c2ccccc2Cl)CC1`, for which the activation was inactive: -13.4%.

With `Cn1c(=O)oc2cc(S(=O)(=O)CCC(=O)NCCc3ccc(Cl)cc3)ccc21`, the activation is inactive: 1.44%.

On to `COc1ccc(NCc2cc3cc4c(cc3n(CC(=O)Nc3ccc(C)c(C)c3)c2=O)OCO4)cc1`, for which the activation was inactive: -40%.

As for `CCn1cc(C(=O)O)c(=O)c2cc(F)c(N3CCNCC3)cc21`, the activation is inactive: -0.644%.

Consider `Cn1c(=O)c2sccc2n2c(CCCC(=O)NC3CCCCC3)nnc12`, for which the activation was inactive: -1.39%.

`Cc1ccc(Cl)cc1N1CCN(S(=O)(=O)c2cc(Br)cc3c2N(C(=O)C2CC2)CC3)CC1`: the activation was inactive: 2.13%.

For the molecule `COc1ccc(-c2nn(-c3ccccc3)cc2C2NC(=O)NC(C)=C2C(=O)OC(C)C)cc1Cl` (configuration not stated), the activation was inactive: 6.93%.

Consider `CC(=O)Nc1ccc(NC(=O)C(Cc2ccccc2)NS(=O)(=O)c2ccc3c(c2)oc(=O)n3C)cc1` (configuration not stated), for which the activation is inactive: -12.5%.

Consider `CCOC(=O)CC(NC(=O)CCc1c(C)nc2c(c1C)c(=O)n(C)c(=O)n2C)c1ccc(OCC)c(OC)c1` (configuration not stated), for which the activation is inactive: -12.8%.

As to `CCOC(=O)c1cc(-c2ccc(F)cc2)n(CCC(=O)Nc2nc3ccc(OC)cc3s2)c1C`, the activation was inactive: -31.1%.

Consider `CC(C)c1ccc(NS(=O)(=O)c2ccc3[nH]cc(C(=O)NCCc4ccccc4)c(=O)c3c2)cc1`, for which the activation is inactive: -14.1%.

Regarding `Cc1ccc(-n2nc(C)c3c(C)cc(=O)n(CC(=O)NC(C)c4ccccc4)c32)cc1` (configuration not stated), the activation was inactive: -2.04%.

Turning to `COc1ccc(S(=O)(=O)N(CC(=O)Nc2cc(Cl)ccc2C)Cc2ccccc2)cc1OC`, the activation was inactive: -4.91%.

Turning to `CCOc1ccc(S(=O)(=O)Nc2cc3c(C(=O)OC)c(COC)oc3c3ccccc23)cc1`, the activation was inactive: 3.65%.

On to `CCn1nc(C)c2c(-c3ccccc3)cc(=O)n(C(C)C(=O)NCCc3ccc(OC)c(OC)c3)c21` (configuration not stated), for which the activation was inactive: -17.5%.

In the case of `CCOc1cc(-c2ccc(OC(=O)c3ccc(OC)cc3)c(OC)c2)cc(=O)c2c(C)oc(C)c12`, the activation is inactive: -22.1%.

Turning to `COc1ccc(N2C(=O)Cc3cc(OC)c(OC)cc3C2c2ccc(F)cc2)cc1` (configuration not stated), the activation was inactive: 9.19%.

For `COc1ccc(S(=O)(=O)Nc2cc3c(C(=O)OC(C)C)c(C)oc3c3ccccc23)cc1`, the activation was inactive: 37.8%.

Turning to `COc1ccc(CNC(=O)CN2C(=O)CCn3nc(-c4ccccc4)cc32)c(OC)c1`, the activation is inactive: -1.59%.

On to `CC(CCc1ccccc1)NC(=O)CSc1n[nH]c(-c2ccc(F)cc2)n1` (configuration not stated), for which the activation is inactive: 21.6%.

As to `COc1ccc(-c2ccc(CCC(=O)O)n2-c2ccccc2O)cc1`, the activation is inactive: -7.88%.

In the case of `CC1=C(C(=O)Nc2ccc(C)cc2C)C(c2ccc(O)cc2)n2nc(SCC(=O)c3ccc(C)cc3)nc2N1` (configuration not stated), the activation is inactive: 0.351%.

For `Cn1c(Nc2ccc(Cl)cc2)cc(=O)n(C)c1=O`, the activation is inactive: -17%.

As to `Cc1oc2ncn(C)c(=O)c2c1C(=O)NCc1ccc(Cl)cc1`, the activation is inactive: -6.99%.

Regarding `COc1ccc(C(=O)c2sc3nc(-c4ccc(F)cc4)ccc3c2N)cc1`, the activation was active: 97.7%.

For the molecule `COc1ccc(-c2nc(Cn3c(SCc4cccc(C(F)(F)F)c4)nc4cccnc43)c(C)o2)cc1OC`, the activation was inactive: -17.9%.

Take `COc1ccc(OC)c(CNC(=O)C2CCCCN2S(=O)(=O)c2ccc(F)cc2)c1` (configuration not stated): the activation is inactive: -2.69%.

As to `COc1ccc(C(=O)Nc2ccc(S(=O)(=O)N(Cc3ccccc3)c3ccccc3)cc2)cc1`, the activation is inactive: -0.507%.

As for `Cc1cc(OCC(O)CN2CCN(c3cccc(Cl)c3)CC2)ccc1Cl` (configuration not stated), the activation was active: 69.8%.

Turning to `COc1ccc(-c2nn3c(=O)cc(CN4CCN(S(=O)(=O)c5ccc(C)cc5)CC4)nc3s2)cc1`, the activation is inactive: 13.6%.

Consider `CC(C)Cc1nn2c(=O)cc(COC(=O)c3ccccc3NC(=O)C3CCCCC3)nc2s1`, for which the activation was inactive: -15.8%.

As to `CCCc1nn2c(=O)cc(COC(=O)c3ccc(NC(=O)C4CCCCC4)cc3)nc2s1`, the activation was inactive: -31.5%.

`Cc1cc(S(=O)(=O)Nc2ccc(C(=O)O)cc2)c(C)c(S(=O)(=O)c2ccc(Cl)cc2)c1`: the activation was inactive: -28.2%.

In the case of `COc1ccc(C)cc1NC(=O)c1cn(C)c(=O)c2cc(OC)c(OC)cc12`, the activation is inactive: 15.9%.

As to `COc1cccc(NS(=O)(=O)c2ccc3c(c2)N(C)C(=O)CC(=O)N3C)c1`, the activation is inactive: 1.53%.

As for `CCc1nnc2c(Nc3ccc(N(CC)CC)cc3C)nc3ccccc3n12`, the activation was inactive: -19.8%.

Consider `Cc1ccc(S(=O)(=O)NCc2nc3cccnc3n2Cc2ccccc2Cl)c(C)c1`, for which the activation was inactive: -21.7%.

For `CCc1ccccc1NC(=O)N1CC(C)Sc2ccccc21` (configuration not stated), the activation is inactive: -34.8%.

With `COc1ccccc1NC(=O)CN1C(=O)c2ccccc2Sc2ccc(C(=O)N3CCCC3)cc21`, the activation was inactive: -6.06%.

For the molecule `CC(=O)c1ccc(NC(=O)c2nc(-c3ccccc3)n(-c3ccccc3)n2)cc1`, the activation was inactive: -10.3%.
